Sequences and labels used below:
B1: CPEB3 Ribozyme (parent)
chain: UAACAGGGGGCCACAGCAGAAGCGUUCACGUCGCAGCCCCUGUCAGAUUCUGGUGAAUCUGCGAAUUCUGCUGUAUAUCUC

Read counts are not given, so values of variants with three or more changes are uncertain.

In the data set the parent is B1. The data set can be described thus: self-cleavage, relative activity (ratio to wild type); higher = more cleavage; in vitro, sequencing. An outline of the steps: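 CPEB3 self-cleaving ribozyme mutant libraries were made by rounds of error-prone PCR, barcoded, and transcribed in vitro with T7 RNA polymerase for 5 hours at 37°C. Cleavage occurred during transcription and a 15 min DNase I step before EDTA stop. RNAs were reverse transcribed with template switching and Illumina-sequenced, with DNA sequencing mapping barcodes to variants. Relative activity is the variant's cleaved/total read fraction divided by wild type's (minimum 5 reads), averaged across three batches.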
Consider UGACAGGGGGCCACAGCAGAAGCGUUCGCGUCGCGGCCCCUGUCAGAUUCUGGUGAAUCUGCGAACUCUGCUGUAUAUCUC [A2G A28G A35G U66C], for which the self-cleavage came to 0.25.
Then UGACAGGGGGCCACAGCAGAAGCGUUCACGUCGCAGCCCCUGUCGGAUUCCGGUGAAUCUGCGAGUUCUGCUGUAUAUCUC [A2G A45G U51C A65G], with 0.12.
As for UGACAGGGGGCCACAGCAGAAGCGUUCACGUCGCAGCCCCUGUCAGGUUCUGGUGGAUCUGCGAAUUCUGCAGUAUAUCUC [A2G A47G A56G U72A], the figure is 0.44.
UGACAGGGGGCCACAGCAGAAGCGUUCCCGUCGCGGCCCCUGUCAGAUUCUGGUGAAUCUGCGAGUUCAGCUGUAUAUCUC [A2G A28C A35G A65G U69A]: the self-cleavage came to 0.18.
As for UGACAGGGGGCCACAGCAGAAGCGUUCUAGUCGCAGCCCCUGUCAGAUUCUGGUGAAGCUGCGAAUUAUGCCGUAUAUCUC [A2G A28U C29A U58G C68A U72C], the figure is 0.06; as for UGACAGGGGGCCACAGCAGAAGCGUUCACGUCGCAGCCCCUGUCGGGCUCUGGUGAAUCUGCGAAUUCUGCUGUAUAUCUC [A2G A45G A47G U48C], 0.33; as for UGACAGGGGGCCACAGCAGAAGCGUUCACGUCGCCGCCCCCGUCAGAUUCUGGUGAAACUGCGAAUUCUGCUGUAUAUCUA [A2G A35C U41C U58A C81A], 0.33.
As to UGACAGGGGGCCACAGCAGAAGCGUUCUCGUCGCAGCCCCUGUCAGACUCAGGUGAAACUGCGAAUUCUGUAGUAUAUCUC [A2G A28U U48C U51A U58A C71U U72A], the self-cleavage was 0.07.
Then UGACAGGGGGCCACAGCAGAGGCGUUCACGUCGCAGCCCCUGUCAGAUUCUGGUGAAUCUGCGAAUUCUGCUGUAUAUCAC [A2G A21G U80A], with 0.25; and UGACAGGGGGCCACAGCAGAGGCGUUCACGUCGCAGCCCCUGUCAGAUUCUGGUGAAUCUGCGAAUUCUGCUGUAUAUCCC [A2G A21G U80C], with 0.97; and UGACAGGGGGCCACAGCAGAGGCGUCCACGUCGCAGCCCCUGUCAGAUUCUGGUGAAUCUGCGAAUUCUGCUGUAUAUCUC [A2G A21G U26C], with 0.47.
Then UGACAGGGGGCCACAGCAGAAGCGUUCACGUCGCAGCCCCUGUCAGAUUCUGGUGAAUCUGCGGAUUCUGCUGUAUAUAUC [A2G A64G C79A], with 0.48.
As for UGACAGGGGGCCACAGCAGAGGCGUUCACGUCGCAGCCCCUGUCAGAUUCUGGUGAAUCAGUGAAUUCUGCUGUAUAUCUC [A2G A21G U60A C62U], the self-cleavage turned out to be 0.23.
As for UGAUAGGGGGCCACAGCAGAAGCGUUCACGUCGCAGCCCCUGUCAGAUUCUGGUGAAUCCACGAAUUCUGCCGUACAUCUC [A2G C4U U60C G61A U72C U76C], the figure is 0.34; as for UGACAGGGGGCCACAGCAGAAGCGUUCACGUCGCGGCCCCUGUCAGAUUCCGGUGAAUCUGCGAAUUCUGCUGUAUAUCUC [A2G A35G U51C], 1.08.
As for UGACAGGGGGCCACAGCAGAAGCGUUCGCGUCGCAGCCCCUGUCAGAUUCUGGUGAAUCUGCGAAUUCAGCCGUAUAUCUC [A2G A28G U69A U72C], the figure is 0.12; as for UGACAGGGGGCCACAGCAGAAGCGUUCACGUCGCAGCCCCUGUCAGGUUCUGGUGAAUCUGCGAAUCCCGCUGUAUAUCCC [A2G A47G U67C U69C U80C], 0.34.
Then UGACAGGGGGCCACAGCAGAAGCGUUCACGUCGCAGCCCCUGUCGGAUUCCGGUGAAUCUGCAAAUUCUGCUGUAUAUCUC [A2G A45G U51C G63A], with 0.47.
UGACAGGGGGCCACAGCAGAAGCGUUCACGUCGCAGCCCCUGUCGGAUUCUGGUGAUUCUGCGAAUGCUGCUGUAUAUCUC [A2G A45G A57U U67G]: the self-cleavage was 0.2.
Then UGACAGGGGGCCACAGCAGAAGCGUUCACGUCGCAGCCCCUGUCUGACUCUGGUGAGUCUGCGAAUUCUGCUGUAUAUCUC [A2G A45U U48C A57G], with 0.54; and UGACAGGGGGCCACAGCAGAAGCGUUCGCGUCGCAGCCCCUGUCAGAUUCCGGAGAAUCUGCGAAUACUGCUGCAUAUCUC [A2G A28G U51C U54A U67A U74C], with 0.2; and UGACAGGGGGCCACAGCAGAAGCGUUCACGUCGCAGCCCCUGUCGGAUUCUGGUGAAUCUGCGAAUACUGCUGUAUAUCUC [A2G A45G U67A], with 0.22.
In the case of UGAUAGGGGGCCACAGCAGAAGCGUUCACGCCGCAGCCCCUGUCAGAUUCUGGUGAAUCUGCGAAUUCUGCUGUAUAUCUC [A2G C4U U31C], the self-cleavage came to 0.58.
As for UGACAGGGGGCCACAGCAGAAGCGUUCACGUCGCAGCCCCUGUCCGAUUCUGGUGGAUCUGCGAAUUCUGCUGUAUAUCUC [A2G A45C A56G], the figure is 0.09.
Then UGACAGGGGGCCACAGCAGAAGCGUUCUCGUCGCAGCCCCUGCCAGAUUCUGGUGCAUCUGGGAAUUCUGCUGUAUAUCUC [A2G A28U U43C A56C C62G], with 0.31; and UGACAGGGGGCCACAGCAGAAGCGUUCACGUCGCAGCCCCUGUCAGGUUCUGGUGAAUCUGCGAAUUCUGCUGAAUAUCUC [A2G A47G U74A], with 0.74; and UGACAGGGGGCCACAGCAGAGGCGUUCACGACGCAGCCCCUGUCAGAUUCUGGUGAAUCUGCGAAUUCUGCUGUAUAUCCC [A2G A21G U31A U80C], with 0.77.
Then UGACAGGGGGCCACAGCAGAAGCGUUCUCGUCGCAGCCCCAGUCAGAUUCUGGUGAAUAUGCGAAUUCUGCUGUAUAUCUC [A2G A28U U41A C59A], with 0.05; and UGAUAGGGGGCCACAGCAGAAGCGCUCACGUCGCAGCCCCUGUCAGAUUCUGGUGAAUCUGCGAAUUCUGCUGUAUAUCUC [A2G C4U U25C], with 0.63; and UGACAGGGGGCCACAGCAGAAGCGUUCACGUCGCAGCCCCUGUCGGAUUCUGGUGAAUCUGCGAAUUCUGCUGUAUUUCUC [A2G A45G A77U], with 0.54.
UGACAGGGGGCCACAGCAGAAGCGUUCACGUCGCAGCCCCUGUCGGAUUCUGGUGAAUCUGCGAAUUCUGCUGUAUGUCUC [A2G A45G A77G]: the self-cleavage came out at 0.49.
Then UGACAGGGGGCCACAGCAGAAGCGUUCACGUCGCAGCCCCUGUCAGAUUCUGGUGAGCCUGCGAAUUCUGCUGUAUAGCUC [A2G A57G U58C U78G], with 0.26; and UGACAGGGGGCCACAGCAGAGGCGUUCACGCCGCAGCCCCUGUCAGAUUCUGGUGAAUCUGCGAAUUCCGCUGUAUAUCUC [A2G A21G U31C U69C], with 0.21; and UGACAGGGGGCCACAGCAGAAGCGUUCACGUCGCAGCCCCUGUCAGAUUCUGGUGAAUCUGCGAUUUCAGCGGUAUAUCUC [A2G A65U U69A U72G], with 0.39.
